The values that follow come from patent US20160208003A1 (AFFITECH RESEARCH, published 2016).

This assay has as its target T1, human CC chemokine receptor 4 (CCR4) (human, UniProt P51679 1-360).
T1 construct: whole, on cells; Always presented on cells; also called CD194; human CCR4
T1 sequence (looked up): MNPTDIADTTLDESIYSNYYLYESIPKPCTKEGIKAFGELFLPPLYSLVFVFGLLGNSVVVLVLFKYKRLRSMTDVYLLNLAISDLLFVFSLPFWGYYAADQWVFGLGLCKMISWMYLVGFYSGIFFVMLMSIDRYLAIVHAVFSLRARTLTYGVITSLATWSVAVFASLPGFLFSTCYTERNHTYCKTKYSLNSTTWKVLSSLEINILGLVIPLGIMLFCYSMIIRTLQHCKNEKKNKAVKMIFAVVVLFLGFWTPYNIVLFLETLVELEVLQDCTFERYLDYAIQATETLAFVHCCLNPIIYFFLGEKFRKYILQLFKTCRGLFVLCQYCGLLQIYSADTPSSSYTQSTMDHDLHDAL
Briefly: flow cytometry (EasyCyte), purified scFv. A general note: In flow cytometry, cells or beads pass a laser one at a time.

B1: 17G scFv (scFv)
scFv: [letters of about 100 residues omitted]IRYSAGYWGQGTLVTVSSKLSGSASAPKLEEGEFSEARVSYVLTQPPSASGTPGQRVTISCSGSSSNIGSNYVYWYQQLPGTAPKLLIYRNNQRPSGVPDRFSGSKSGTSASLAISGLRSEDEADYYCAAWDDRLSGWVFGGGTKLTVLAAAGSEQKLISEEDLNSHHHHHH
notes: For staining the scFv was pre-incubated with an anti-c-myc antibody with human Fc (cross-linked, dimer-like); also called scFv 17G
Consider B1, for which the binding result is given as “binds”.
